This test concerns the target IGF receptors (Homo sapiens, UniProt P08069). Nature of the test: competition binding of refolded IGF fusion proteins to IGF receptors against radioactive wild type IGF. To be noted: Ni eluates refolded 3 hours at room temperature, read-out: approximate binding constants (KDs). The procedure: 2 ml of each of the original Ni eluates from Example 1 was mixed with about an equal volume of 100 mM glycine, 6 M urea, pH 9.5, concentrated by ultrafiltration in a CENTRICON 3 kDa filter unit, then brought up again in that buffer and concentrated to about 420 ul. Then they were diluted to 2 mg/ml for 403IGF, 764IGF, and 765IGF, and 4 mg/ml for 784IGF and 2.4 mg/ml for 785IGF.
200 ul of each of these was mixed rapidly with 1.8 ml of refold buffer. Refold buffer was 1.4 M urea, 100 mM glycine, 0.5 M NaCl, 19% ethanol, 0.5 mM GSSG, 4 mM GSH, pH 9.5. They were refolded at room temperature for 3 hours, and then tested in a binding assay for competition binding to IGF receptors against […] radioactive wild type IGF (Perkin Elmer, Inc.) For comparison, commercial Long-R3-IGF (LR3IGF) was also tested.

IGF receptors, sequence (P08069 31-736 limits assumed): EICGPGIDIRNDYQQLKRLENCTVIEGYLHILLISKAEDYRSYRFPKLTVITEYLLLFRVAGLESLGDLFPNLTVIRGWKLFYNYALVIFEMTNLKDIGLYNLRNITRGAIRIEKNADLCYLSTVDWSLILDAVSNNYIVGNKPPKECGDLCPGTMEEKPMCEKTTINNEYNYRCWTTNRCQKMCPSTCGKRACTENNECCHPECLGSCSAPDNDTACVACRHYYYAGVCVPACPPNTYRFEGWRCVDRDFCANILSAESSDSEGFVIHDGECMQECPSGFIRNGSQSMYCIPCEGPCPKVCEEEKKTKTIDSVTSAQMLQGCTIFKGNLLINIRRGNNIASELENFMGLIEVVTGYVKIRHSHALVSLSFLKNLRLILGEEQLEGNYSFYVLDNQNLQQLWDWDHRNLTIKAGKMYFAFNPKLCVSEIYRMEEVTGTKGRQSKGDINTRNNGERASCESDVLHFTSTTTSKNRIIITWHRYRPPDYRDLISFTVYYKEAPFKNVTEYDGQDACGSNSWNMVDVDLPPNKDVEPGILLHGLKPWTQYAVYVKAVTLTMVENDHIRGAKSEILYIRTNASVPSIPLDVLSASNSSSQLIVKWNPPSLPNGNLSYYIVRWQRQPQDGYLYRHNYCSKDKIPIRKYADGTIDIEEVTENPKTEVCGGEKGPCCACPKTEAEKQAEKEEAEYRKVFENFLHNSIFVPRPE
IGF receptors, sequence (P08069 741-1367 partner limits assumed): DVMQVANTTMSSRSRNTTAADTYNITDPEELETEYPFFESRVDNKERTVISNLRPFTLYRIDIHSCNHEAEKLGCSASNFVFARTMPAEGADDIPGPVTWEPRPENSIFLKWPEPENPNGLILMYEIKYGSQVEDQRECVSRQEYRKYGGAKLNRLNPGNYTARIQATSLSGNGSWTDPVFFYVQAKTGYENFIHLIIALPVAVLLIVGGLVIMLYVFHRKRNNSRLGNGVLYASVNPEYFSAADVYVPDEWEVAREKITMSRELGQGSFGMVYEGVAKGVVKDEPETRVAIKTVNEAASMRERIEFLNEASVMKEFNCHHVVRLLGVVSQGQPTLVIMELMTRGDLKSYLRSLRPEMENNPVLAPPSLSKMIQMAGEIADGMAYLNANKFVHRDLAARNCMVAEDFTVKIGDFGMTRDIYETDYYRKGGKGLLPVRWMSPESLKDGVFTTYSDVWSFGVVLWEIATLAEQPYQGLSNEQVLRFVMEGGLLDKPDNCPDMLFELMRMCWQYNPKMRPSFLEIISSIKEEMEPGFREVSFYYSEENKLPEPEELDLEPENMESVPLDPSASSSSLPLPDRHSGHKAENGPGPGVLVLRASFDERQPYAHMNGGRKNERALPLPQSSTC

B1: 784IGF: mutTrx-R3IGF fusion protein, SEQ ID NO: 15 (protein)
chain: MVKQIESKTAFQEALDAAGDKLVVVDFSATWCGHCKMIKPFFHSLSEKYSNVIFLEVDVDDSQDVASESEVKSMPTFQFFKKGQKVGEFSGANKEKLEATINELVGSKSGHHHHHHSAKG[about 80 residues omitted here]
For the molecule B1, the Kd is around 3 nM.

(Values after patent US9801923B2, “Fusion proteins containing insulin-like growth factor-1 and epidermal growth factor and variants thereof and uses thereof” (IGF Oncology, LLC, priority 2014, dated 2017).)
